Experimental data as given in PubChem BioAssay AID1347073 (National Center for Advancing Translational Sciences (NCATS), 2019).
Screen size: about 45,000 compounds; about 200 (0.44%) were called active. Roughly 7% stayed inconclusive and do not appear here. Calls come from the whole dose curve; as a rule, active = well fitted activation curve with a large enough effect; inconclusive = small, poorly fitted or top-dose-only effect; inactive = no such curve, though single readings can be large or run the other way. The list shows a part of the results.

assay: qHTS of TDP-43 Inhibitors: NCGC Sytravon Library Screen; settings: yeast TDP-43 toxicity rescue, BacTiter-Glo growth, 24 h; series mostly up to 46.1 µM; growth rescue (activation): at the top concentration; note: 0% is about no effect; nearly all actives have a fitted effect of over 55% in size
Outline: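 TDP-43-expressing yeast, pregrown in raffinose, seeded at OD600 0.02 in galactose medium with compound for 24 hr at 30 deg C. Growth read by BacTiter-Glo luminescence, so rescue of toxicity appears as activation.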

Structure (SMILES)	growth rescue (activation)
Cc1cc(/C=C2\NC(=O)NC2=O)c(C)n1-c1cccnc1	inactive: 2.44%
COc1ccc(-c2nc(CN3CCCCC3CCc3ccccn3)c(C)o2)cc1 (stereo unspecified)	inactive: 9.79%
Cc1ccc(S(=O)(=O)N2CCCN(C)CC2)cc1	inactive: 7.5%
CCOc1ccc(N2C(=O)C3C(c4ccc(OC)cc4OC)NC(CCSC)(C(=O)OC)C3C2=O)cc1 (stereo unspecified)	inactive: 8.16%
CCOc1cc2c(cc1OC)C(c1cccc([N+](=O)[O-])c1)NCC2 (stereo unspecified)	inactive: -4.12%
CCCCNS(=O)(=O)c1cccc(NC(=O)[C@@H]2O[C@H](CO)[C@H](O)[C@H](O)[C@H]2O)c1	inactive: -10.4%
CSc1ccc(CCNC(=O)CN2C(=O)CCSc3ccccc32)cc1	inactive: 0.762%
O=C(N/N=C/c1ccncc1)c1cc(C2CC2)nc2ccccc12	inactive: 2.53%
O=C(N/C(=C\c1cccnc1)C(=O)N1CCCCC1)c1cccc(Br)c1	inactive: 14.5%
Clc1ccc(-c2cn(-c3ccccc3)c3[n+]2CCS3)cc1	inactive: -3.86%
NC(=O)c1ccccc1NC(=O)COc1ccc2c(c1)OCO2	inactive: -13.8%
O=C(CCC1CCCN(C(=O)c2ccoc2)C1)NCc1ccc(F)c(F)c1 (stereo unspecified)	inactive: 5.09%
CN(C)S(=O)(=O)c1cccc(-c2nn(-c3ccccc3)cc2/C=C2\SC(=S)NC2=O)c1	inactive: 20.8%
COc1cc(/C=N/NC(=O)c2cccc(S(=O)(=O)N3CCOCC3)c2)cc(OC)c1O	inactive: 0.133%
COc1ccc(N(CC(=O)NCCSCc2ccco2)S(=O)(=O)c2ccccc2)cc1	inactive: 5.09%
O=C(COC(=O)C1C2CC3OC(=O)C1C3C2)Nc1ccc(Cl)cc1 (stereo unspecified)	inactive: 4.26%
O=C(CC(=O)NC1CCCCC1)N/N=C/c1ccc(Cl)cc1	inactive: -6.23%
CCCCN(C(=O)c1cc2c(s1)CCC2)c1c(N)n(CCC)c(=O)[nH]c1=O	inactive: 23%
CCC(C(=O)NCCCN(CC)CC)n1ncn2c(cc3occc32)c1=O (stereo unspecified)	inactive: 0.578%
C/C(=N\N(Cc1ccccc1)c1ccccc1)c1ccncc1	inactive: 6.47%
COc1ccc(CN2CCC(N3CC(C)OC(C)C3)CC2)c(OC)c1 (stereo unspecified)	inactive: -23.4%
CCN(CC(=O)NCc1ccncc1)S(=O)(=O)c1ccc(OC)cc1	inactive: 10.6%
CC(C)C[C@H](NC(=O)C1CCC(CNC(=O)[C@@H]2CCCN2C(=O)OC(C)(C)C)CC1)C(=O)O (stereo partly specified)	inactive: 3.62%
COc1ccc(CCC(=O)OCc2csc(CC(=O)Nc3ccc(C)cc3)n2)cc1OC	inactive: 6.59%
CC1(C(=O)Nc2ccc3[nH]ncc3c2)CCN1C(=O)CCc1ccccc1 (stereo unspecified)	inactive: 8.72%
CSc1nsc(SCC(=O)Nc2ccc(F)cc2)n1	inactive: -1.7%

Structure (SMILES)	growth rescue (activation)
NC(=O)CSc1nnc(-c2ccccc2F)n1C1CC1	inactive: 5.34%
COc1cccc(C(NC(C)=O)c2nc(-c3cnn(C)c3)cs2)c1 (stereo unspecified)	inactive: 23.1%
COc1cc(CNc2ncnc3c2ncn3[C@H]2CN(Cc3ccc4c(c3)OCO4)C[C@@H](CO)O2)cc(OC)c1OC	inactive: 5.31%
COc1cccc(-c2cc(NC(C)=O)c3ncc(-c4ccc(OC)c(OC)c4)n3c2)c1	inactive: 16%
O=C(CSc1n[nH]c(-c2ccccc2)n1)N1CCOCC1	inactive: -2.7%
CC(=O)Nc1ccc(S(=O)(=O)n2nc(C)cc2C)cc1	inactive: 8.04%
O=C(c1cccc([N+](=O)[O-])c1)N1CCCC(C(=O)N2CCN(c3ccccc3)CC2)C1 (stereo unspecified)	inactive: 4.12%
C/C(N)=C(/C#N)C(=O)COC(=O)C1CCN(S(=O)(=O)c2cccs2)CC1	inactive: -3.72%
O=C1CC(NNc2ccccc2)C(=O)N1c1ccccc1 (stereo unspecified)	inactive: -32.8%
CC(C)C(NCC(=O)Nc1ccccc1C(=O)NC1CC1)c1ccccc1 (stereo unspecified)	inactive: -0.217%
CC(C)CN(CC(C)C)S(=O)(=O)N1CCC(C(=O)NCc2ccco2)CC1	inactive: -1.04%
CCOc1cc(C(=O)Nc2ccc(S(=O)(=O)NC3=NCCCCC3)cc2)cc(OCC)c1OCC	inactive: -2.42%
Cc1ccc(S(=O)(=O)N2CCC(C(=O)NC3CC3)CC2)cc1	inactive: 3.09%
CCN(CC)CCN(C)C(=O)c1ccc(OC2CCN(C(=O)C3CC3)CC2)cc1	inactive: 1.45%
CC(=O)c1cccc(NC(=S)N2CCN(S(=O)(=O)c3ccc(F)cc3)CC2)c1	inactive: 6.9%
Cc1ccsc1/C=C1/CN(C)Cc2c1nc1ccccc1c2C(=O)O	inactive: 21.9%
CCOc1ccc(S(=O)(=O)N2CC(=O)Nc3ccccc32)cc1C#N	inactive: 9.24%
CCCOc1ccc(/C(O)=C2/C(=O)C(=O)N(c3ccccn3)C2c2ccc(OC)cc2)cc1C (stereo unspecified)	inactive: -19%
O=C(Nc1ccccc1)Nc1cc(S(=O)(=O)N2CCOCC2)ccc1N1CCCC1	inactive: 18.1%
O=C(CNC(=O)C1COc2ccccc2O1)N/N=C\c1cccc(O)c1 (stereo unspecified)	inactive: -8.28%
Cc1cccnc1C(NC(=O)C1CCN(Cc2ccc(Cl)cc2)CC1)c1ccccc1 (stereo unspecified)	inactive: -1.62%
CSc1ccccc1C(=O)C1CCCN(C(=O)CCc2cccnc2)C1 (stereo unspecified)	inactive: 7.66%
OCCN1CCN(c2ncnc3c2ncn3[C@H]2CN(Cc3cccs3)C[C@@H](CO)O2)CC1	inactive: -3.51%
CCN(CC)S(=O)(=O)c1ccc(NCCc2ccccn2)nc1	inactive: 9.1%
Nn1c(SCc2cc([N+](=O)[O-])cc3c2OCOC3)nnc1-c1ccccn1	inactive: 5.71%
